Columns and labels:
[1] = SD, rat, in vivo, po, 5 mg/kg
[2] = tested on: virus H1N1 A/Weiss/43; assay: microbe, parasite or virus in culture; assay type: cell-based; conditions: Influenza A virus, H1N1, 120 h; MDCK cells, CPE inhibition, 5 days, CCK-8; read-out: EC50 (nM), inhibitory activities against influenza virus (A/Weiss/43(H1N1))
[3] = in vivo; conditions: SD, rat

| Compound | F [1] | EC50 [2] | AUC(0-inf) ([3]; po, 5 mg/kg) | AUC(0-t) ([3]; po, 5 mg/kg) | Cmax ([3]; po, 5 mg/kg) | Tmax ([3]; po, 5 mg/kg) | half-life ([3]; po, 5 mg/kg) | Vd ([3]; iv, 1 mg/kg) | also measured |
| --- | --- | --- | --- | --- | --- | --- | --- | --- | --- |
| O=C(O)C1C2CCC(CC2)C1Nc1cc(-c2ccccc2)nc(-c2c[nH]c3c(F)cc(F)cc23)n1 (racemic) [Example 1, (+/−)-trans-3-((2-(5,7-difluoro-1H-indol-3-yl)-6-phenylpyrimidin-4-yl)amino)bicyclo[2.2.2]octane-2-carboxylic Acid] | 72.1% | 5.5 nM | 10600 ng·h/mL | 10500 ng·h/mL | 2910 ng/mL | 1.5 h | 1.37 h |  |  |
| N#Cc1ccc(-c2cc(NC3C4CCC(CC4)C3C(=O)O)nc(-c3c[nH]c4c(F)cc(F)cc34)n2)cc1 (racemic) [Example 6, (+/−)-trans-3-((6-(4-cyanophenyl)-2-(5,7-difluoro-1H-indol-3-yl)pyrimidin-4-yl)amino)bicyclo[2.2.2]octane-2-carboxylic Acid] |  | 6.01 nM |  |  |  |  |  |  |  |
| Cn1ccc2c(NC3C4CCC(CC4)C3C(=O)O)nc(-c3c[nH]c4c(F)cc(F)cc34)nc21 (racemic) [Example 9, (+/−)-trans-3-((2-(5,7-difluoro-1H-indol-3-yl)-7-methyl-7H-pyrrolo[2,3-d]pyrimidin-4-yl)amino)bicyclo[2.2.2]octane-2-carboxylic Acid] |  | 2.24 nM |  |  |  |  |  |  |  |
| O=C(O)C1C2CCC(CC2)C1Nc1nc(-c2c[nH]c3c(F)cc(F)cc23)nc2c(F)cccc12 (racemic) [Example 10, (+/−)-trans-3-((2-(5,7-difluoro-1H-indol-3-yl)-8-fluoroquinazolin-4-yl)amino)bicyclo[2.2.2]octane-2-carboxylic Acid] |  | 27.9 nM |  |  |  |  |  |  |  |
| O=C(O)C1C2CCC(CC2)C1Nc1cc(C#Cc2ccccc2)nc(-c2c[nH]c3c(F)cc(F)cc23)n1 (racemic) [Example 24, (+/−)-trans-3-((2-(5,7-difluoro-1H-indol-3-yl)-6-(phenylethynyl)pyrimidin-4-yl)amino)bicyclo[2.2.2]octane-2-carboxylic Acid] |  | 11 nM |  |  |  |  |  |  |  |
| Cn1ncc2c(NC3C4CCC(CC4)C3C(=O)O)nc(-c3c[nH]c4c(F)cc(F)cc34)nc21 (racemic) [Example 31, (+/−)-trans-3-((6-(5,7-difluoro-1H-indol-3-yl)-1-methyl-1H-pyrazolo[3,4-d]pyrimidin-4-yl)amino)bicyclo[2.2.2]octane-2-carboxylic Acid] |  | 17.1 nM |  |  |  |  |  |  |  |
| O=C(O)C1C2CCC(CC2)C1Nc1nc(-c2c[nH]c3c(F)cc(F)cc23)nc2c1ccn2CCF (racemic) [Example 34, (+/−)-trans-3-((2-(5,7-difluoro-1H-indol-3-yl)-7-(2-fluoroethyl)-7H-pyrrolo[2,3-d]pyrimidin-4-yl)amino)bicyclo[2.2.2]octane-2-carboxylic Acid] | 100.2% | 2.19 nM | 19700 ng·h/mL | 19600 ng·h/mL | 8880 ng/mL | 0.5 h | 1.38 h | 0.515 L/kg | AUC(0-inf) ([3]; iv, 1 mg/kg): 3940 ng·h/mL; AUC(0-t) ([3]; iv, 1 mg/kg): 3920 ng·h/mL; Cmax ([3]; iv, 1 mg/kg): 5400 ng/mL; Tmax ([3]; iv, 1 mg/kg): 0.083 h; clearance ([3]; iv, 1 mg/kg): 4.23 mL/min/kg; half-life ([3]; iv, 1 mg/kg): 1.35 h |
| CC(C)n1ccc2c(NC3C4CCC(CC4)C3C(=O)O)nc(-c3c[nH]c4c(F)cc(F)cc34)nc21 (racemic) [Example 35, (+/−)-trans-3-((2-(5,7-difluoro-1H-indol-3-yl)-7-isopropyl-7H-pyrrolo[2,3-d]pyrimidin-4-yl)amino)bicyclo[2.2.2]octane-2-carboxylic Acid] | 94.6% | 4.04 nM | 24000 ng·h/mL | 24000 ng·h/mL | 9920 ng/mL | 0.5 h | 1.21 h | 0.264 L/kg | AUC(0-inf) ([3]; iv, 1 mg/kg): 5080 ng·h/mL; AUC(0-t) ([3]; iv, 1 mg/kg): 5050 ng·h/mL; Cmax ([3]; iv, 1 mg/kg): 6080 ng/mL; Tmax ([3]; iv, 1 mg/kg): 0.083 h; clearance ([3]; iv, 1 mg/kg): 3.3 mL/min/kg; half-life ([3]; iv, 1 mg/kg): 1.23 h |
| O=C(O)C1C2CCC(CC2)C1Nc1cc(-c2ccco2)nc(-c2c[nH]c3c(F)cc(F)cc23)n1 (racemic) [Example 52, (+/−)-trans-3-((2-(5,7-difluoro-1H-indol-3-yl)-6-(furan-2-yl)pyrimidin-4-yl)amino)bicyclo[2.2.2]octane-2-carboxylic Acid] |  | 1.21 nM |  |  |  |  |  | 0.229 L/kg |  |
| O=C(O)C1C2CCC(CC2)C1Nc1nc(-c2c[nH]c3c(F)cc(F)cc23)nc(-c2ccco2)c1F (racemic) [Example 56, (+/−)-trans-3-((2-(5,7-difluoro-1H-indol-3-yl)-5-fluoro-6-(furan-2-yl)pyrimidin-4-yl)amino)bicyclo[2.2.2]octane-2-carboxylic Acid] |  | 1.05 nM |  |  |  |  |  |  |  |
